PubChem BioAssay AID652104 (National Center for Advancing Translational Sciences (NCATS), 2013)
The campaign covered roughly 410,000 compounds. About 7,200 (1.8%) were called active. Inconclusive results, whose numbers are uncertain, are shown with a selection of clear calls. The call rests on the fitted dose curve; in most records, active means well fitted activation curve with a large enough effect; inconclusive means small, poorly fitted or top-dose-only effect, or another doubt; inactive means no such curve, though single readings can be large or run the other way. Potencies of inconclusive entries are doubtful fits and often do not repeat.

Test: qHTS of TDP-43 Inhibitors; further: nearly all actives have a fitted effect of over 50% in size; on growth rescue (activation): % of control where 0% means no effect
Conditions: TDP-43 expressing yeast growth rescue, BacTiter-Glo, 24 h; growth rescue (activation): at 46.1 µM (top of the series) unless noted
Method in brief: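 Yeast expressing TDP-43 (pregrown in raffinose, seeded at OD600=0.02 in galactose medium) exposed to compounds 24 hr at 30 deg C. Growth read by BacTiter-Glo luminescence; rescue of toxicity appears as increased signal.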
Potency means the concentration at half of the fitted maximal effect; tags describe the fitted curve by direction and shape.

Potency, active:
CCC(=O)Nc1ccc(Cl)c(NC(=S)NC(=O)c2ccco2)c1 11.2 µM

Potency, inconclusive:
COc1cccc(C(=O)OC(C)C(=O)NCC2CCCCC2)c1 (stereo not drawn) 14.1 µM [activator, partial curve]
CCOC(=O)c1c(-c2ccccc2)csc1/N=C/C1C(=O)CCCC1=O 14.1 µM [activator, partial curve]
COc1cc2c(cc1OC)CN(S(=O)(=O)c1ccc3c(c1)OCCO3)CC2 11.2 µM [activator, single point]
CSc1ccccc1OCc1cc(C(=O)NCCC2CCCCO2)no1 (stereo not drawn) 1.26 µM [activator, full curve, poor fit]
O=C1C=C(c2ccc(F)c(Cl)c2)C[C@@H](c2ccc(F)cc2)C1 35.5 µM [activator, single point]
Cc1cccc(NC(=O)CN(C)C(=O)c2ccc(N3CCCCCC3)c([N+](=O)[O-])c2)c1C 15.8 µM [activator, single point]
CC(=O)N[C@@H](Cc1c[nH]c2ccccc12)C(=O)OCc1cc(C(F)(F)F)cc(C(F)(F)F)c1 35.5 µM [activator, partial curve]
Cn1c(-c2ccc(-c3ccccc3)cc2)c[nH]c1=S 14.1 µM [activator, single point]
CCCc1ccc2c(N)c(C#N)sc2n1 12.6 µM [activator, single point]
CC(CCc1ccccc1)NC(=O)COC(=O)c1cc(NS(=O)(=O)c2ccc(Cl)c([N+](=O)[O-])c2)ccc1O (stereo not drawn) 6.31 µM [activator, partial curve]
COc1ccc(-c2coc3cc(OC)ccc3c2=O)cc1 3.16 µM [activator, partial curve]
O=S(=O)(Nc1nc2cc3c(cc2nc1Cl)OCCO3)c1ccccc1 22.4 µM [activator, single point]
Cc1ccccc1NCC(=O)N/N=C\C=C\c1cccc([N+](=O)[O-])c1 12.6 µM [activator, partial curve]
CCOc1ccc(OCC)c(NC(=O)CSc2nnc(-c3cccnc3)o2)c1 11.2 µM [activator, partial curve]
CCNC(=S)Nc1ccc(Cl)c(C(F)(F)F)c1 14.1 µM [activator, single point]

Growth rescue (activation), inactive:
O=C(CCn1c(=O)c2cccn2c2ccc(F)cc21)NCCc1ccccc1Cl 10.7%
CCCOc1ccc(Nc2nc(SC)ncc2C(=O)OCC)cc1 14.9%
